Test results published in paper PMC12136788.
The other results are listed elsewhere or left out.

T1: UNK ZnF1-3 (human, UniProt Q9C0B0 31-174)
T1 sequence: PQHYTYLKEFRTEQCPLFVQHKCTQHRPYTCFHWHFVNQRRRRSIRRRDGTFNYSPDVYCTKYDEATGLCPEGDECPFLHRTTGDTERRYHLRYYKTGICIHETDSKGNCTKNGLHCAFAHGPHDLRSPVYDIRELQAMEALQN

B1: chr9:53390698:53390699:-_ENSMUSG00000032047_ENSMUST00000034547|mus_hu|FALSE|FALSE (ssRNA)
RNA: GGGAGUUCUACAGUCCGACGAUCGGUUGUCUACAGCUUCUGAAUUAGCAUGGCAGAAGCACCUCCUCCUCCAUUGCAAAUACUGGCAAGACCGUAUUCUCCUUGCUUCAAGGCAUGAGUCAAAUGACCAACAAUCCUGGCUCCCAACAGAGGAUUGAGCAUCA
B2: chr16:20935853:20935854:+_ENSG00000102897_ENST00000219168|hu_mus|FALSE|FALSE (ssRNA)
RNA: GGGAGUUCUACAGUCCGACGAUCCAAGAAUCAGGAGACCACAAAAAAGCCUAUACAGAAACCAGUUUUAAGCAAAUGAAAAUAACUUGCGGAAAAACCUCAAGUUUUGGGGAGAAGGGUAGCUUUGGAGCCAUGUGAACUUGCCAACAGAGGAUUGAGCAUCA
B3: chr3:8560387:8560388:+_ENSMUSG00000027500_ENSMUST00000029002|perfect_dup|FALSE|FALSE (ssRNA)
RNA: GGGAGUUCUACAGUCCGACGAUCCAUACACUUCCCAUACUGAUAUCGCAUGAUCCAUUAUAAUAUAGGCAGGGGGAUUUACUAUGGGAGGGGCUUGCCAUACCCGCCAUUGCUUCAGCCAGACAGUUCAACCUGCAGUUCCUUCAACAGAGGAUUGAGCAUCA
B4: 119215667_119222031_344_CDS_ENSG00000111875_ENST00000229595|human|control|control (ssRNA)
RNA: GGGAGUUCUACAGUCCGACGAUCAUGCCUUCCUGCGGGAACAGGACCCACUAAAACAGAGUCUAAAACUUGAUCGUAUUCUUCACUUUCUGCAGAGCCCACAUAGAUAAUUUUCCAUUCCAAGUCUUCAGACAGGUCCUCGAUCAACAGAGGAUUGAGCAUCA
B5: chr10:70525781:70525782:+_ENSG00000060339_ENST00000535016|hu_hu|FALSE|FALSE (ssRNA)
RNA: GGGAGUUCUACAGUCCGACGAUCUGAAUGUUCUUUAUUAUCCUCUAAUCUGUAGUCCAAUAGGACACUCAAAGACAUGAUGCUACAAUCAAACUUGCCACUUUUUGCAGCCCAAUUUGGAUGUACAAUGAUGGCCGGUUCAUCCAACAGAGGAUUGAGCAUCA
B6: 18274065_18293492_5945_CDS_ENSG00000243156_ENST00000441493|human|control|control (ssRNA)
RNA: GGGAGUUCUACAGUCCGACGAUCGCCUGCUUCGCCCCGGAGCGCCUUCUCCACAGCCACGCCCCUUUCCUCCAGCCGCCGCUGCCUCUCCUCCACCUGCUGCAGCUGCCGCUGGAUGAUCUGGGCUCGAUGCAGCCGCUUAAGCAACAGAGGAUUGAGCAUCA
B7: chr2:136389457:136389458:+_ENSG00000048991_ENST00000409478|hu_mus|FALSE|FALSE (ssRNA)
RNA: GGGAGUUCUACAGUCCGACGAUCCUGAUCAACAUUGUGGUCUAAUCCAAAGUAGGCAGCCACUCUGUGUAACAGCAUCCUGUGGUAAGAUGUCAUCGGGGGAAACUUCUUACGUGGGGACUCAUUAUUACCAAUGAAAUCUAACAACAGAGGAUUGAGCAUCA
B8: chr6:142515020:142515021:-_ENSMUSG00000030247_ENSMUST00000032374|mus_mus|FALSE|FALSE (ssRNA)
RNA: GGGAGUUCUACAGUCCGACGAUCCCCUCCAAACCCAAUGGUCACUUGAACCUCAAUGGAGAAGAGAAACGCAGACGUGAAUGACCUGACAUUGGUCACACAGACAGCGGACUCCAGGCCACUCUUCUCCAUGGUGCCUUUCUCCAACAGAGGAUUGAGCAUCA
B9: chr11:118370577:118370578:+_ENSG00000118058_ENST00000534358|hu_mus|FALSE|FALSE (ssRNA)
RNA: GGGAGUUCUACAGUCCGACGAUCCUGGUAUCCAAUAGGAAAGAGUUUAUCUUCACAGUCAGAGAGGUCAUUCAGGAUUCCCAAACAGUCGAUUGUCAUUGAGCCUAUCAUCAUGUGGAUAUUUUCUGGUUCCAAGCCAUUAAGCAACAGAGGAUUGAGCAUCA
B10: chr4:57314706:57314707:+_ENSG00000128050_ENST00000264221|hu_mus|hu_hu_hu_mus_True|38_58 (ssRNA)
RNA: GGGAGUUCUACAGUCCGACGAUCCAGAAUUUCAAAAAUAGCUUGUGUGGCAUGACUCAUGAUGUCCACUUCAGUCUGGCCUAUAAGAAGGCCAGCAAAGCAAAAUUUUGCAGCAAUGAGUUGCUCCUCAGACCACUGUGGAUCCAACAGAGGAUUGAGCAUCA
B11: chr11:87793471:87793472:-_ENSMUSG00000020483_ENSMUST00000020775|mus_mus|FALSE|FALSE (ssRNA)
RNA: GGGAGUUCUACAGUCCGACGAUCAAUGGGCUGGGGAAAAAAAAAUAGCUAGAUUUCCCCACCCCUUACAGUGUCAACCCUAUGCGAGUUCUGAAUGUGAUUCAUAAGAAUCAGCAGCUCAAUUGGCAAUGACAACCCCCACCCCAACAGAGGAUUGAGCAUCA
B12: 127869695_127869815_373_3pUTR_ENSMUSG00000046096_ENSMUST00000060175|mouse|control|control (ssRNA)
RNA: GGGAGUUCUACAGUCCGACGAUCUGUAGCUUCUCUUCGCCAGUGGGAAGCCACCAGCAAACCACAUGUGACAGUCAAGGAAAUGAUUCCCAUGAUGAUAAAAAACAGGGUGGUGACCCAUUCUGGGGGAAGCCGAGGAGGGAUCAACAGAGGAUUGAGCAUCA
B13: chr1:39494447:39494448:+_ENSG00000168653_ENST00000372967|hu_mus|FALSE|FALSE (ssRNA)
RNA: GGGAGUUCUACAGUCCGACGAUCGCACCGAGCGGCGUUCUUAUAGGGCUGUUCUGCGCUUAGGAACAUAAAGUGCCGGUCCAGGCUGAUGCCCAGCUUUUUCUGUAUGUCAAGGAAAGGCAUGGCUCUGCAGUGCCCUUGUCACAACAGAGGAUUGAGCAUCA
B14: chr1:137268451:137268452:-_ENSMUSG00000041889_ENSMUST00000041240|mus_mus|FALSE|FALSE (ssRNA)
RNA: GGGAGUUCUACAGUCCGACGAUCUGGCCUGAUGACUAGGAGACCCUUGCCCACCCUCAGGGCUAGAUGCAGGUACAGGACGGGGACUCUCCCAAAAAAAAAAAAAACCCAAAAAACGACAUCACGGAAGGGACAGCAGAGCCACAACAGAGGAUUGAGCAUCA

Target: T1, UNK ZnF1-3
Assay: nsRBNS (natural sequence RNA bind-n-seq); RBNS binding buffer (assumed for nsRBNS): 25 mM Tris pH 7.5, 150 mM KCl, 3 mM MgCl2, 0.01% Triton X-100, 500 ug/ml BSA, 20 U/ml SUPERase-In, 4 C; UNK is unkempt and MSI1 is Musashi-1; names of the RNAs are library labels; protein concentration not given here; high values mean tight binding

| Binder | binding signal |
| --- | --- |
| B1 | 1.08 enrichment R |
| B2 | 2.38 enrichment R |
| B3 | 1.63 enrichment R |
| B4 | 1.29 enrichment R |
| B5 | 0.662 enrichment R |
| B6 | 0.605 enrichment R |
| B7 | 0.711 enrichment R |
| B8 | 0.683 enrichment R |
| B9 | 1.73 enrichment R |
| B10 | 0.965 enrichment R |
| B11 | 1.15 enrichment R |
| B12 | 0.892 enrichment R |
| B13 | 0.806 enrichment R |
| B14 | 1.58 enrichment R |
